# Laboratory results from the supplement of paper PMC8728848.
# Some of the results follow.
# B1: Tamarinin (protein)
# chain: CDDSARAGNIVVYWGQGGSDNSEGSLKEACKSGHYNMIVLQQLIVYDDGRDPDLNLGAHCSDCTKLEEQIKYCQNKDIKILLQIGQVVPTQEDVKDVTKNLSEYLLKNFFSGKSGPLGEVYLNGIDIASVPEGNNLKFDELVEALNDSSTERRIYLSASPLCVYPDYYLNKAIQTEKLDFLFVQFFYQNPCIYTEGNPENLFEAMKTWTKNVPESMIFMALPATPNLDGYIPPRVLNKEILPAVSEASNFAGVMIFDRYFDRFRKYSSKIK
# How the values were obtained:
# Experiment in all cases: glycan array binding signal (z-score within array); higher = stronger binding
# Settings in all cases: glycan notation: IUPAC condensed, linker removed
# Fuc(a1-2)Gal = biological target: Fuc(a1-2)Gal
# Outline: (§1)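 The Consortium for Functional Glycomics database supplied 3228 glycan arrays, of which those lacking an available protein sequence were dropped. The binding signal, a within-array Z-score, was averaged across arrays of the same protein sequence and across linkers. Negative scores can be read as non-binding.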
# Fuc(a1-2)Gal(b1-3)GalNAc = biological target: Fuc(a1-2)Gal(b1-3)GalNAc
# Outline: as §1
# [1] = biological target: Fuc(a1-2)Gal(b1-3)GalNAc(a1-3)[Fuc(a1-2)]Gal(b1-4)Glc
# Outline: as §1
# [2] = biological target: Fuc(a1-2)Gal(b1-3)GalNAc(a1-3)[Fuc(a1-2)]Gal(b1-4)GlcNAc
# Outline: as §1
# [3] = biological target: Fuc(a1-2)Gal(b1-3)GalNAc(b1-3)Gal
# Outline: as §1
# [4] = biological target: Fuc(a1-2)Gal(b1-3)GalNAc(b1-3)Gal(a1-4)Gal(b1-4)Glc
# Outline: as §1
# [5] = biological target: Fuc(a1-2)Gal(b1-3)GalNAc(b1-4)[Neu5Ac(a2-3)]Gal(b1-4)Glc
# Outline: as §1
# Fuc(a1-2)Gal(b1-3)GlcNAc = biological target: Fuc(a1-2)Gal(b1-3)GlcNAc
# Outline: as §1
# [6] = biological target: Fuc(a1-2)Gal(b1-3)GlcNAc(b1-2)Man(a1-3)[Fuc(a1-2)Gal(b1-3)GlcNAc(b1-2)Man(a1-6)]Man(b1-4)GlcNAc(b1-4)GlcNAc
# Outline: as §1
# [7] = biological target: Fuc(a1-2)Gal(b1-3)GlcNAc(b1-2)Man(a1-3)[Fuc(a1-2)Gal(b1-3)GlcNAc(b1-2)Man(a1-6)]Man(b1-4)GlcNAc(b1-4)[Fuc(a1-6)]GlcNAc
# Outline: as §1
# [8] = biological target: Fuc(a1-2)Gal(b1-3)GlcNAc(b1-3)Gal(b1-4)Glc
# Outline: as §1
# [9] = biological target: Fuc(a1-2)Gal(b1-3)GlcNAc(b1-3)GalNAc
# Outline: as §1
# [10] = biological target: Fuc(a1-2)Gal(b1-3)GlcNAc(b1-3)[Fuc(a1-2)Gal(b1-3)GlcNAc(b1-6)]GalNAc
# Outline: as §1
# [11] = biological target: Fuc(a1-2)Gal(b1-3)GlcNAc(b1-3)[Gal(b1-4)GlcNAc(b1-6)]Gal(b1-4)Glc
# Outline: as §1
# [12] = biological target: Fuc(a1-2)Gal(b1-3)GlcNAc(b1-3)[Neu5Ac(a2-6)Gal(b1-4)GlcNAc(b1-6)]Gal(b1-4)Glc
# Outline: as §1
# [13] = biological target: Fuc(a1-2)Gal(b1-3)GlcNAc6S
# Outline: as §1
# [14] = biological target: Fuc(a1-2)Gal(b1-3)[Fuc(a1-4)]GlcNAc
# Outline: as §1
# [15] = biological target: Fuc(a1-2)Gal(b1-3)[Fuc(a1-4)]GlcNAc(b1-2)Man(a1-3)[Fuc(a1-2)Gal(b1-3)[Fuc(a1-4)]GlcNAc(b1-2)Man(a1-3)]Man(b1-4)GlcNAc(b1-4)GlcNAc
# Outline: as §1
# [16] = biological target: Fuc(a1-2)Gal(b1-3)[Fuc(a1-4)]GlcNAc(b1-2)Man(a1-3)[Fuc(a1-2)Gal(b1-3)[Fuc(a1-4)]GlcNAc(b1-2)Man(a1-6)]Man(b1-4)GlcNAc(b1-4)[Fuc(a1-6)]GlcNAc(b1-4)[Fuc(a1-6)]GlcNAc
# Outline: as §1
# [17] = biological target: Fuc(a1-2)Gal(b1-3)[Fuc(a1-4)]GlcNAc(b1-3)[Fuc(a1-3)[Gal(b1-4)]GlcNAc(b1-6)]Gal(b1-4)Glc
# Outline: as §1
# [18] = biological target: Fuc(a1-2)Gal(b1-3)[Fuc(a1-4)]GlcNAc(b1-3)[Gal(b1-4)GlcNAc(b1-6)]Gal(b1-4)Glc
# Outline: as §1
# Fuc(a1-2)Gal(b1-4)Glc = biological target: Fuc(a1-2)Gal(b1-4)Glc
# Outline: as §1
# Fuc(a1-2)Gal(b1-4)Glc6S = biological target: Fuc(a1-2)Gal(b1-4)Glc6S
# Outline: as §1
# Fuc(a1-2)Gal(b1-4)GlcNAc = biological target: Fuc(a1-2)Gal(b1-4)GlcNAc
# Outline: as §1
# [19] = biological target: Fuc(a1-2)Gal(b1-4)GlcNAc(b1-2)Man
# Outline: as §1
# [20] = biological target: Fuc(a1-2)Gal(b1-4)GlcNAc(b1-2)Man(a1-3)[Fuc(a1-2)Gal(b1-4)GlcNAc(b1-2)Man(a1-6)]Man(b1-4)GlcNAc(b1-4)GlcNAc
# Outline: as §1
# [21] = biological target: Fuc(a1-2)Gal(b1-4)GlcNAc(b1-2)Man(a1-3)[Fuc(a1-2)Gal(b1-4)GlcNAc(b1-2)Man(a1-6)]Man(b1-4)GlcNAc(b1-4)[Fuc(a1-6)]GlcNAc
# Outline: as §1
# [22] = biological target: Fuc(a1-2)Gal(b1-4)GlcNAc(b1-2)[Fuc(a1-2)Gal(b1-4)GlcNAc(b1-4)]Man(a1-3)[Fuc(a1-2)Gal(b1-4)GlcNAc(b1-2)Man(a1-6)]Man(b1-4)GlcNAc(b1-4)GlcNAc
# Outline: as §1
# [23] = biological target: Fuc(a1-2)Gal(b1-4)GlcNAc(b1-3)Gal(b1-4)GlcNAc
# Outline: as §1
# [24] = biological target: Fuc(a1-2)Gal(b1-4)GlcNAc(b1-3)Gal(b1-4)GlcNAc(b1-2)Man(a1-3)[Fuc(a1-2)Gal(b1-4)GlcNAc(b1-3)Gal(b1-4)GlcNAc(b1-2)Man(a1-6)]Man(b1-4)GlcNAc(b1-4)GlcNAc
# Outline: as §1
binder,measurement,setting,value
B1,glycan array binding signal (z-score),Fuc(a1-2)Gal,-0.336
same,glycan array binding signal (z-score),Fuc(a1-2)Gal(b1-3)GalNAc,-0.357
same,glycan array binding signal (z-score),[1],-0.325
same,glycan array binding signal (z-score),[2],-0.286
same,glycan array binding signal (z-score),[3],-0.287
same,glycan array binding signal (z-score),[4],-0.241
same,glycan array binding signal (z-score),[5],-0.339
same,glycan array binding signal (z-score),Fuc(a1-2)Gal(b1-3)GlcNAc,-0.359
same,glycan array binding signal (z-score),[6],0.79
same,glycan array binding signal (z-score),[7],1.46
same,glycan array binding signal (z-score),[8],-0.275
same,glycan array binding signal (z-score),[9],-0.033
same,glycan array binding signal (z-score),[10],1.75
same,glycan array binding signal (z-score),[11],0.02
same,glycan array binding signal (z-score),[12],-0.268
same,glycan array binding signal (z-score),[13],0.63
same,glycan array binding signal (z-score),[14],-0.364
same,glycan array binding signal (z-score),[15],1.03
same,glycan array binding signal (z-score),[16],0.355
same,glycan array binding signal (z-score),[17],-0.718
same,glycan array binding signal (z-score),[18],-0.333
same,glycan array binding signal (z-score),Fuc(a1-2)Gal(b1-4)Glc,-0.377
same,glycan array binding signal (z-score),Fuc(a1-2)Gal(b1-4)Glc6S,-0.241
same,glycan array binding signal (z-score),Fuc(a1-2)Gal(b1-4)GlcNAc,-0.393
same,glycan array binding signal (z-score),[19],0.087
same,glycan array binding signal (z-score),[20],1.15
same,glycan array binding signal (z-score),[21],0.94
same,glycan array binding signal (z-score),[22],-0.059
same,glycan array binding signal (z-score),[23],-0.361
same,glycan array binding signal (z-score),[24],0.643
